Source: the supplement of paper PMC3334620
Whole data set: some 33,000 sequences, median “E-score (-0.5 to 0.5)” near -0.036, cut for the highest 2% near 0.37. This is one part of the list.

Target: T1, Yer064c (UniProt P40041)
T1 sequence: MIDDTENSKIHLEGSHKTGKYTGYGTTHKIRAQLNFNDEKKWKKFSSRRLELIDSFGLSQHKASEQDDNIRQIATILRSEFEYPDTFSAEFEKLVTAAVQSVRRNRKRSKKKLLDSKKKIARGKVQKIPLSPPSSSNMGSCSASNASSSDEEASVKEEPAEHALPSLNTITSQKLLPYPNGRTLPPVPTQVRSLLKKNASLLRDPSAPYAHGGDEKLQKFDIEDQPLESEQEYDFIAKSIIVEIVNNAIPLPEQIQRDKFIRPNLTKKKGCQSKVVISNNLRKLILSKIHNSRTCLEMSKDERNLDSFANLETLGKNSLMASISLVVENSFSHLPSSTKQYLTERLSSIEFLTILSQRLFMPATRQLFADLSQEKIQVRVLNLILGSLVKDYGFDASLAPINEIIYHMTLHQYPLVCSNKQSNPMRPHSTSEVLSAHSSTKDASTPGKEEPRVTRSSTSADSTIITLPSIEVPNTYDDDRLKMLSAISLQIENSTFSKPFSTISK
Experiment: PBM E-score (8-mer binding enrichment) (E-score (-0.5 to 0.5)); higher = stronger / more preferred TF binding; most listed sequences are background and not binding sites
Settings: protein concentration: 200 nM; construct: GST-full length
Summary of the method: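 GST-tagged yeast TFs (full-length or DNA-binding domain) were made by PURExpress in vitro transcription/translation and applied at about 100-200 nM to universal all-10-mer Agilent arrays. The arrays were made double-stranded by primer extension, on fresh or once-stripped slides. Bound protein was detected with fluorescent anti-GST, and scans were normalised with masliner. Each ungapped eight-base word, pooled with its reverse complement, received an E-score (modified Wilcoxon-Mann-Whitney statistic) from the Universal PBM Analysis Suite.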

Going from CTAACAAA to TACACACA, the “PBM E-score” value rises from 0.0927 to 0.157.

Compared with ACCATAGA, CGTCGATC is lower in “PBM E-score” value: 0.0535 for the first, 0.0258 for the second.

Going from CTCATCGC to GTGCATGA, the “PBM E-score” value falls from 0.206 to 0.178.

Going from AACCAGTA to CCTGTGCG, the “PBM E-score” value falls from -0.0555 to -0.245.

Compared with CAACTTAA, CGATGTTA is lower in “PBM E-score” value: 0.0943 for the first, -0.128 for the second.

Compared with AGTAGAAA, CACTTACC is higher in “PBM E-score” value: -0.0164 for the first, 0.0118 for the second.

Compared with GAAGTAAC, CGGGGAAA is lower in “PBM E-score” value: -0.164 for the first, -0.181 for the second.

Going from TGCCATAA to GTGCAACA, the “PBM E-score” value rises from -0.147 to -0.0209.

Compared with TACCCTAA, GTGTGATA is higher in “PBM E-score” value: -0.0746 for the first, 0.00432 for the second.

Compared with AGGTTTAT, AGGGTACC is lower in “PBM E-score” value: -0.0489 for the first, -0.188 for the second.

Compared with GCGACATA, AAGATGGC is higher in “PBM E-score” value: -0.0374 for the first, -0.00295 for the second.

Going from GATATCCC to AATTCACC, the “PBM E-score” value rises from -0.216 to -0.0422.

First: ACGGATCC
Second: CAATGTGC
The “PBM E-score” value of the first is lower: -0.152 for the first, -0.09 for the second.

Compared with GATATGCA, ATGATCGA is higher in “PBM E-score” value: -0.0494 for the first, 0.0635 for the second.

Compared with GTCTGGAA, GACGTTAC is lower in “PBM E-score” value: 0.0106 for the first, -0.00375 for the second.

Going from AAGGAGCG to ATTATGCC, the “PBM E-score” value rises from -0.22 to -0.113.

First: CAGACATG
Second: AGCTACCC
The “PBM E-score” value of the first is higher: -0.117 for the first, -0.123 for the second.

Going from ACAACCGA to CGACCGTC, the “PBM E-score” value falls from -0.164 to -0.244.

First: AATTCACT
Second: AGCGCGCG
The “PBM E-score” value of the first is higher: 0.00494 for the first, -0.0301 for the second.

Going from ATCCTCAC to ATTGAAGA, the “PBM E-score” value rises from -0.00551 to 0.181.

Going from AAACCTCG to ACAGTCCT, the “PBM E-score” value rises from -0.0783 to 0.174.

Going from AGTGAGAA to AGTACCAT, the “PBM E-score” value falls from 0.0887 to 0.0281.

Compared with GCTCGCTA, ATAGGAGG is lower in “PBM E-score” value: -0.152 for the first, -0.229 for the second.

First: TGGAATAA
Second: TTACCCAA
The “PBM E-score” value of the first is lower: -0.0112 for the first, 0.0875 for the second.

Going from ACCACACT to CGGTATCC, the “PBM E-score” value falls from -0.021 to -0.344.

Compared with ATAAATAT, CTGAGGGC is lower in “PBM E-score” value: 0.138 for the first, -0.263 for the second.

First: ATAATTGA
Second: GACGAAGA
The “PBM E-score” value of the first is higher: 0.226 for the first, 0.0944 for the second.

Compared with CCCTCGCG, TAGTGCGA is higher in “PBM E-score” value: -0.215 for the first, -0.0974 for the second.

Going from TAGCTTGA to CGTGTAAC, the “PBM E-score” value rises from -0.013 to 0.0306.

Compared with ATCCCTCC, TCGCACCA is higher in “PBM E-score” value: -0.191 for the first, 0.0562 for the second.

Going from GAGATTAC to CGCACGGA, the “PBM E-score” value falls from 0.178 to -0.14.

Compared with CTACACCC, CGGTCGCC is lower in “PBM E-score” value: -0.128 for the first, -0.157 for the second.

Going from GCGGCCAC to CTAGTTTC, the “PBM E-score” value rises from -0.257 to 0.0667.

First: TCCCCGGA
Second: GAACCGCC
The “PBM E-score” value of the first is lower: -0.0933 for the first, 0.0299 for the second.

Compared with CAGGGGAA, CGTTCGCC is higher in “PBM E-score” value: -0.185 for the first, -0.168 for the second.

First: CGTAAGGC
Second: ACAGTGCC
The “PBM E-score” value of the first is higher: -0.102 for the first, -0.218 for the second.

First: ACCTCGGC
Second: ACTTGTAG
The “PBM E-score” value of the first is lower: -0.153 for the first, 0.053 for the second.

Compared with GACTTAGC, TCCTCGAA is lower in “PBM E-score” value: 0.292 for the first, 0.0745 for the second.

Compared with GAAAATTC, ATCCGCAC is higher in “PBM E-score” value: -0.154 for the first, 0.00267 for the second.

First: ATCTTGCC
Second: AGACGCAT
The “PBM E-score” value of the first is lower: -0.164 for the first, -0.109 for the second.

Compared with CCATAAAG, CACAATCA is higher in “PBM E-score” value: -0.178 for the first, 0.284 for the second.

First: GGATACAC
Second: ACTGACTG
The “PBM E-score” value of the first is lower: 0.0108 for the first, 0.306 for the second.

Going from TAATACTA to AACGGACA, the “PBM E-score” value falls from 0.106 to -0.158.
